The labels stand for the following.
B1: CPEB3 Ribozyme (parent)
chain: UAACAGGGGGCCACAGCAGAAGCGUUCACGUCGCAGCCCCUGUCAGAUUCUGGUGAAUCUGCGAAUUCUGCUGUAUAUCUC

The source of these data is the RNAGym collection of RNA variant scans (doi:10.1093/nar/gkz1192).

Read counts are not given, so values of variants with three or more changes are uncertain.

Variants of B1 are the subject of this data set. Briefly: self-cleavage, relative activity (ratio to wild type); higher = more cleavage; in vitro, sequencing. The method in brief:
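Libraries of CPEB3 self-cleaving ribozyme mutants came from rounds of error-prone PCR and carried barcodes, which DNA sequencing matched to variants. In vitro transcription used T7 RNA polymerase at 37°C for 5 hours, with a further 15 min in DNase I before EDTA stopped the reaction; the ribozymes cleaved during both steps. The RNA was reverse transcribed with template switching and sequenced on Illumina. Relative activity is the cleaved/total read fraction of a variant divided by that of the unmutated ribozyme, averaged over three batches with at least 5 reads.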
As to UAACAAGGGGCCACAGCAGAAGCGCUCACGUAGCAGCCCCUGUCAGAUUCUGGUGAAUCUGCGAAUUCUGCUGUAUAUCAC, the self-cleavage worked out at 0.29.
Turning to UAACAAGGGGCCACAGCAGAAGCAUUCUCGUCGCAGCCCCCGUCAGAUUCUGGUGAAUCUGCGAAUUCUGCUGUAUAUCUC, the self-cleavage was determined as 0.15.
Next, UAACAAGGGGCCACAGCAGAAGCGCUCACGUCGCAGCCCCCGUCAGAUUCUGGUGAAUCUGCGAAUUCUGCUGUAUAUCUC: 0.05; UAACAAGGGGCCACAGCAGAAGCGUCCACGGCGCAGCCCCUGUCAGAUUCUGGUGGAUCUGCGAAUUCUGCUGUAUAUCUC: 0.05; UAACAAGGGGCCACAGCAGAAGCGCUCACGUCGCAGCCCCUGACAGAUUCUGGUGAAUCUGUGAACUCUGCUGUACAUCUC: 0.06.
Under UAACAAGAGGCCACAGCAGAAGGGUUCACGUCUCAGCCCCUGUCAGAUUCUGGUGAAUCUGCGAAUUCUGCUGUGUAUCUC stands 0.04; under UAACAAGGGGCCACAGCAGAAGCGCUCGCGUCGCAGCCCCUGUCGGAUUCUGGUGAAUCUGCGAAUUCUGCUGUAUAUCUC, 0.07.
Next, UAACAAGGGGCCACAGCAGAAGCGCUCACGUCGCAGCCCCUGUCAGAUUCUGGUGAAUCUGCGAACUCUGCUGUAUAUCUC: 0.37; UAACAAGGGGCCACAGCAGAAGCGCUCACGACGCAGCCCCUGUCGGGUUCUGGUGAAUCUGCGAAUUCUGCUGUAUAUCUC: 0.28.
On to UAACAAGGUGCCACAGCAGAAGCGUACACGUCGCAGCCCCUGUCAGAUUCUGGUGAAUCUGCGAAUUCUGCCGUAUAACUC, for which the self-cleavage stood at 0.05.
As to UAACAAGGCGCCACAGCAGAAGCGUUCACGACGCAGCCCCUGUCAGAUUCUGGUGAAUCUGCGGAUUCUGCUGUAUAUCUC, the self-cleavage was 0.06.
Next, UAACAAGGGCCCACUGCAGAAGCUCUCACGUCGCAGCCCCUGUCAGAUUCUGGUGAAUCUGCGAAUUCCGCUGUAUAUCUC: 0.07; UAACAAGGGGCCACAGCAGAAGCGUUCACGUCACAGCCCCUGUCAGAUUCUGGUGAAUCUGCAAAUCCUGCUGUAUAUCUC: 0.05.
Turning to UAACAAAGGGCCACAGCAGAAGCGUUCACGUCGCAGCCCCUGUCCGAUUCAGGUGAAUCUGCGAAUUCUGCUGUAUACCUC, the self-cleavage is 0.07.
As for UAACAAGGGGCCACAGCAGAAGCGCUCACGUCGCAGCCCCUGUCAGGUUCUGGCGAAUCUGCGAAUUCUGCUGUAUAUCUC, the self-cleavage was 0.05.
In the case of UAACAAGGGGCCACAGCAGAAGCGUCCACGUCGCAGCCCCUGUGAGAUUCUGGUGAAUCAGCGAAUUCUGCUGUAUAUCUC, the self-cleavage amounted to 0.27.
Turning to UAACAAGGGGCCACAGCAGAAGCGAUCACGUCACAGCCCCCGUCAGAUUCUGGUGAAUCUGCGAACUCUGCUGUAUAUCUC, the self-cleavage amounted to 0.08.
In the case of UAACAAGGGGCCACAGCAGAAGCGUCCACUUCGCAGCCCCUGUCAGAUUCUGGUGUAUCUGCGAAUUCUGCUGUAUAUCUC, the self-cleavage stood at 0.06.
For the variant UAACAAGGUGCCACAGCAGAAGGGUUCACGUCGCAGCCCCUGUCAGAUUCUGGCGAAUCUGCGAAUUCUGCUGUAUAUCUC, the self-cleavage came out at 0.05.
For UAACAAGGGGCCACAGCAGAAGCGUUCACGUCGCAGCCCCUGUCAGAUUCUGGUGAAUCUGUGAAUUCUGCAGUAUAUCCC, the self-cleavage is 0.08.
Consider UAACAAGGGGCCACAGCAGAAGCGUGCACGUCGCAUCCCCUGUCAGAUUCUGGAGAAUCUGCGAAUUCUGCUGUAUAUCUC, for which the self-cleavage came out at 0.05.
Next, UAACAAGGGGCCACAACAGAAGCGUUCACGUCGCGGCCCCUGUCUGAUUCUGGUGAAUCUGCGAAUUCUGCUGUAUAGCUC: 0.25; UAACAAGGAGCCACAGCAGAAGUGCUCACGUCGCAGCCCCUGUCAGAUUCUGGUAAAUCUGCGAAUUCUGCUGUAUAUCUC: 0.07; UAACAAGGGGCCACAGCAGAAGCGUUCACGUCGCAGCCCUUGUCAGAUUCUGGUGAGUCUGCGAAUUCUGCUGUAUGUCUC: 0.13.
Under UAACAAGGGGCCACAGCAGAAGCGAUCACGUCGCGGCCCCUGUCAGAUUCUGGUGAAUCUGCGAGUUCCGCUGUAUAUCUC stands 0.05.
Next, UAACAAGGGGCCACAGCAGAAGCGCUCACGUCGCAGCCCCUGUCAGAUCCUGGUGAAUCUGCGGAUUCUGCUGUAUAUCUC: 0.1; UAACAAGGGGCCACAGCAGAAGCGUUCACGUCACAGCCCCUGUCAGAUUCUGGUGAAUCCGCGGAUUCUGCUGUAUAUCUC: 0.05; UAACAAGGAGCCACAGCGGAAGCGUUCACGUCGCGGCCCCUGUCAGAUUCUGGUGAAUCUGCGAAUUCUGCUGUAUAUCUC: 0.15.
For UAACAAGGAGCCACUGCAGAAGCGUUCACGCCGCAGCCCCUGCCAGAUUCUGGUGAAUCUGCGAAUUCUGCUGUAUAUCUC, the self-cleavage was 0.06.
As to UAACAAGGUGCCACAGCAGAAGCGUUCACGUCGCAGCCCCUGUCAGGUUCUGGUGAAUCUGCGAGUUCUGCUGUAUAACUC, the self-cleavage stood at 0.06.
Under UAACAAGGGGCCACAGCAGAAGCGUACACGUCGCAGCCCCUCUCAGAUUCUGGUGAAUCUGCGAAUUCUGCCGUAUAUCUC stands 0.07; under UAACAAGGGGCCACAGCAGAAGCGCUCACGACGCAGCCCCUGUCAGAUUCUGGAGAAUCUGCGAAUUCUGCUGUAUAUCUC, 0.07.
Next, UAACAAGGGGCCACAGCAGAAGCGUACACGUCGCAGCCUCUGUAAGAUUCUGGUGAAUCUGCGAAUUCUGCUGUAUAUCCC: 0.06; UAACAAGGGACCACAGCAGAAGCGUUCACGUCGCAGCCCCAGUCAGAUCCUGGUGAAUCUGCGAAUUCUGCUGUAUAUCUC: 0.05.
